{
  "source": "paper PMC4336329",
  "about": "(PLoS ONE, 2015)",
  "note": "Hit rate of the full screen: of about 310,000 compounds, about 2,200 (0.71%) showed an effect of 50% or more. Effects have a minus sign here. The list shows a part of the results.",
  "data": [
    {"target": "human ether-à-go-go-related gene (hERG) potassium channel (human, UniProt Q12809)", "sequence (Q12809 whole entry, looked up)": "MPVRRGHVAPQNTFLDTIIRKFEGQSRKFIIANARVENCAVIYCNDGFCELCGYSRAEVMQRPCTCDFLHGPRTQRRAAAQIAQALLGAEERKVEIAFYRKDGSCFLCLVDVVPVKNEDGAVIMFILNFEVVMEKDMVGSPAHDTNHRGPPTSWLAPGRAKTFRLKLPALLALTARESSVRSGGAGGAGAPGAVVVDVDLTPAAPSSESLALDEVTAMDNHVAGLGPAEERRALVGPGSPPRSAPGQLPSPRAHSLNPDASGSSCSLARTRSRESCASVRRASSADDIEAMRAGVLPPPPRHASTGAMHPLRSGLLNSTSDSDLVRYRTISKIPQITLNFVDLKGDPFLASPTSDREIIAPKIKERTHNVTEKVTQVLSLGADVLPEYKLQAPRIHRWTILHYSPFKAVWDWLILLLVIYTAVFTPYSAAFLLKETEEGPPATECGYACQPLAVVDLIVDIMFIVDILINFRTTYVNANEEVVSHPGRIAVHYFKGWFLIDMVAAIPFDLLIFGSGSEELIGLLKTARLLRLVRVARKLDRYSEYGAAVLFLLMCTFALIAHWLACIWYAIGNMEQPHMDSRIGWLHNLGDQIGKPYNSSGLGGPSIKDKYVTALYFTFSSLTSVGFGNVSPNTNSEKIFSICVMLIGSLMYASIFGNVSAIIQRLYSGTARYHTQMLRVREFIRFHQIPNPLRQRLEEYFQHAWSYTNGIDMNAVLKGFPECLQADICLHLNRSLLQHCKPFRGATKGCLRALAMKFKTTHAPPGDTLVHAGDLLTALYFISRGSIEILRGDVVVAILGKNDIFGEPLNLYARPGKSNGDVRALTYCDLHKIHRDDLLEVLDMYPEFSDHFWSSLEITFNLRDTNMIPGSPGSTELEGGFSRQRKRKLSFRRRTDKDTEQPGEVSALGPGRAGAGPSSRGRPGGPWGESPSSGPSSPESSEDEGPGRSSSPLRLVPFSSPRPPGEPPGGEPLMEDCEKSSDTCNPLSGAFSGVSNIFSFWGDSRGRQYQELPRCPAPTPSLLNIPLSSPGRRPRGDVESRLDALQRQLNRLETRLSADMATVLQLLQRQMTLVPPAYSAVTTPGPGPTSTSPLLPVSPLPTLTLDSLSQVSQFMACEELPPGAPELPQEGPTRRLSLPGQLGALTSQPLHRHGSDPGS", "assay": "primary screen, population patch clamp on CHO cells stably expressing hERG", "units": {"hERG current change (%, negative = inhibition) at 1uM": "%"}, "values": [
      {"smiles": "Nc1nonc1-n1nnc(C(=O)N/N=C/c2ccccc2F)c1CN1CCOCC1", "hERG current change (%, negative = inhibition) at 1uM": 5.6},
      {"smiles": "Cc1ccc(C2(C)NC(=O)N(CC(=O)N3c4ccccc4NC(=O)CC3C)C2=O)cc1", "note": "(centres unmarked)", "hERG current change (%, negative = inhibition) at 1uM": 14.8},
      {"smiles": "COc1cc2c(cc1OC)CN(C(=O)Cc1ccccc1)CC2", "hERG current change (%, negative = inhibition) at 1uM": 2.34},
      {"smiles": "NS(=O)(=O)c1ccc(NC(=O)COC(=O)c2ccc3c(c2)OCCO3)cc1", "hERG current change (%, negative = inhibition) at 1uM": 13.4},
      {"smiles": "O=C(COc1ccccc1C(=O)Nc1ccccc1)c1ccc(Br)cc1", "hERG current change (%, negative = inhibition) at 1uM": 10.3},
      {"smiles": "CCn1c2ccccc2c2cc(/C=N/n3cnnc3)ccc21", "hERG current change (%, negative = inhibition) at 1uM": 13.5},
      {"smiles": "COc1ccc(Cl)cc1S(=O)(=O)N1CCN=C1c1ccccc1", "hERG current change (%, negative = inhibition) at 1uM": 1.46},
      {"smiles": "CC(=O)NS(=O)(=O)c1ccc(NC(=S)NC(=O)C(C)C)cc1", "hERG current change (%, negative = inhibition) at 1uM": 7.38},
      {"smiles": "Cn1c(CCC(=O)OCC(=O)NCC(F)(F)F)nc(=O)c2ccccc21", "hERG current change (%, negative = inhibition) at 1uM": 4},
      {"smiles": "CC1=CC(C)(C)N2C(=O)C3(SCC(=O)N3c3ccc(F)cc3)c3cc(C)cc1c32", "note": "(centres unmarked)", "hERG current change (%, negative = inhibition) at 1uM": -3.08},
      {"smiles": "O=C(CN(C(=O)c1csnn1)c1ccc(F)c(Cl)c1)NC1CCCCC1", "hERG current change (%, negative = inhibition) at 1uM": 18.3},
      {"smiles": "Cc1ncn(-c2ccccc2)c1-c1ccccc1", "hERG current change (%, negative = inhibition) at 1uM": 4.67},
      {"smiles": "NC1C2CN3CCN(C2)CC1(c1ccccc1)C3", "note": "(centres unmarked)", "hERG current change (%, negative = inhibition) at 1uM": 13.9},
      {"smiles": "CC(=O)Nc1ccc(C(=O)COC(=O)c2cccs2)c(F)c1", "hERG current change (%, negative = inhibition) at 1uM": 1.77},
      {"smiles": "O=C(c1ccccc1)N1CCc2[nH]nc(-c3ccccc3)c2C1", "hERG current change (%, negative = inhibition) at 1uM": 7.34},
      {"smiles": "Cc1cc(NCc2ccccn2)n2ncc(-c3ccccc3)c2n1", "hERG current change (%, negative = inhibition) at 1uM": 8.43},
      {"smiles": "Cc1cccc(NS(=O)(=O)c2cccc([N+](=O)[O-])c2)n1", "hERG current change (%, negative = inhibition) at 1uM": 13.7},
      {"smiles": "CN(Cc1nccn1C)C(=O)c1ccc(OC2CCN(CCc3ccccc3)CC2)cc1", "hERG current change (%, negative = inhibition) at 1uM": -9.16},
      {"smiles": "Cc1cc(C)cc(NC(=O)N2CCc3ccccc3C2)c1", "hERG current change (%, negative = inhibition) at 1uM": 16.6},
      {"smiles": "O=C(Cn1ncc2c([nH]c3ccccc32)c1=O)NCCCN1CCN(c2ccccc2)CC1", "hERG current change (%, negative = inhibition) at 1uM": -3},
      {"smiles": "Cc1cc(C)cc(NC(=O)c2ccc(CSc3nnc(C)s3)cc2)c1", "hERG current change (%, negative = inhibition) at 1uM": 8.08},
      {"smiles": "O=c1c(CN2CCN(c3ccccn3)CC2)coc2ccccc12", "hERG current change (%, negative = inhibition) at 1uM": -6.81},
      {"smiles": "CCn1ncc(CN2CCCC(C(=O)Nc3cccc(-c4cc5ccccc5[nH]4)c3)C2)c1C", "note": "(centres unmarked)", "hERG current change (%, negative = inhibition) at 1uM": 2.83},
      {"smiles": "O=C(Cc1c[nH]c2ccccc12)Nc1ccc(N2CCOCC2)cc1", "hERG current change (%, negative = inhibition) at 1uM": 8.78},
      {"smiles": "O=C(O)/C=C/C(=O)N1CCN(c2cccc(Cl)c2)CC1", "hERG current change (%, negative = inhibition) at 1uM": 7.47},
      {"smiles": "CC1CN(C(=O)C2CCCCC2)C(C)CN1C(=O)C1CCCCC1", "note": "(centres unmarked)", "hERG current change (%, negative = inhibition) at 1uM": 17.1},
      {"smiles": "O=c1oc2ccccc2cc1-c1nc(-c2ccccc2)no1", "hERG current change (%, negative = inhibition) at 1uM": -6.57},
      {"smiles": "Cc1ccc(OCC(=O)NNC(=S)NC(=O)C(C)(C)C)c(Br)c1", "hERG current change (%, negative = inhibition) at 1uM": 11.6},
      {"smiles": "COC(=O)c1c(C)[nH]c(C)c1-c1ccc(C)cc1", "hERG current change (%, negative = inhibition) at 1uM": 12.1},
      {"smiles": "COc1ccc2c(c1)c(=O)oc1c(C)c(OCc3ccc(C(=O)O)cc3)ccc12", "hERG current change (%, negative = inhibition) at 1uM": 11.2},
      {"smiles": "O=C(CN(C(=O)CNC(=O)c1cccs1)c1cccc(F)c1)NC1CCCCC1", "hERG current change (%, negative = inhibition) at 1uM": 6.83},
      {"smiles": "O=C(OCCCOc1ccc(F)cc1)c1ccc(O)cc1O", "hERG current change (%, negative = inhibition) at 1uM": 13.4},
      {"smiles": "CN(C)CCNc1oc(COc2cccc(Cl)c2)nc1C#N", "hERG current change (%, negative = inhibition) at 1uM": -4.66},
      {"smiles": "O=C(NCCc1ccc(Cl)cc1)c1ccc(OCC2CCCO2)cc1", "note": "(centres unmarked)", "hERG current change (%, negative = inhibition) at 1uM": 15.4},
      {"smiles": "COc1ccc(CCC(C)NCCc2ccc(Cl)cc2Cl)cc1", "note": "(centres unmarked)", "hERG current change (%, negative = inhibition) at 1uM": -50.1},
      {"smiles": "Cc1ccc(SCc2ccc(C(=O)Nc3cccc([N+](=O)[O-])c3C)cc2)cc1", "hERG current change (%, negative = inhibition) at 1uM": 12},
      {"smiles": "COc1ccc(CCNCC2C(Oc3ccc(Cl)cc3)C(=O)N2c2ccccc2C)cc1OC.Cl", "note": "(centres unmarked)", "hERG current change (%, negative = inhibition) at 1uM": -6.44},
      {"smiles": "COc1ccc(CN(C)C(C)C(=O)N(C)CC(=O)Nc2ccc(C)cc2)cc1F", "note": "(centres unmarked)", "hERG current change (%, negative = inhibition) at 1uM": -16.3},
      {"smiles": "O=C(NNc1ncccc1Cl)c1c(Cl)cccc1Cl", "hERG current change (%, negative = inhibition) at 1uM": 10.9},
      {"smiles": "COc1ccc(C(=O)O/N=C(/c2ccccc2)c2ccncc2)cc1OC", "hERG current change (%, negative = inhibition) at 1uM": 12.8},
      {"smiles": "CC(C)c1ccc(OCC(=O)N(Cc2ccccc2)c2ccccn2)cc1", "hERG current change (%, negative = inhibition) at 1uM": 12.5},
      {"smiles": "CCOc1ccc(C(CC(=O)O)NC(=O)COc2ccc3ccccc3c2)cc1OC", "note": "(centres unmarked)", "hERG current change (%, negative = inhibition) at 1uM": 16.4},
      {"smiles": "Cc1cc(C)n2nc(-c3ccco3)nc2n1", "hERG current change (%, negative = inhibition) at 1uM": 6.62},
      {"smiles": "COc1ccc(CCNS(=O)(=O)c2ccc(-n3cnnn3)cc2)cc1OC", "hERG current change (%, negative = inhibition) at 1uM": -6.7},
      {"smiles": "C=CCN(c1ccc(C(=O)Nc2ccc3c(c2)OCO3)cc1)S(C)(=O)=O", "hERG current change (%, negative = inhibition) at 1uM": 6.65},
      {"smiles": "CSCCC(NS(=O)(=O)c1ccc(C)cc1)C(=O)N1CCCCCCC1", "note": "(centres unmarked)", "hERG current change (%, negative = inhibition) at 1uM": 8.8},
      {"smiles": "CC(=O)N1CCc2cc(S(=O)(=O)NCCC(=O)Nc3cccc(C)c3C)ccc21", "hERG current change (%, negative = inhibition) at 1uM": 2.01},
      {"smiles": "CN(c1cccc(NC(=O)CN2C(=O)c3ccccc3S2(=O)=O)c1)S(C)(=O)=O", "hERG current change (%, negative = inhibition) at 1uM": -11.8},
      {"smiles": "Cc1ccc(-c2[nH]ncc2/C=N/n2c(COc3ccccc3C)nc3ccccc3c2=O)cc1", "hERG current change (%, negative = inhibition) at 1uM": 5.21},
      {"smiles": "O=C(CC1Nc2ccccc2NC1=O)c1ccccc1", "note": "(centres unmarked)", "hERG current change (%, negative = inhibition) at 1uM": 6.1},
      {"smiles": "O=S(=O)(c1ccc(Cl)cc1)N1CCN(C(=S)Nc2ccccc2F)CC1", "hERG current change (%, negative = inhibition) at 1uM": 5.05},
      {"smiles": "O=C(COC(=O)c1cc(-c2ccco2)nc2ccccc12)NCc1ccccc1", "hERG current change (%, negative = inhibition) at 1uM": 5.47},
      {"smiles": "O=C(CSc1n[nH]c(-c2ccccn2)n1)Nc1ccc(F)cc1", "hERG current change (%, negative = inhibition) at 1uM": 12.8},
      {"smiles": "O=C(Nc1c2c(nn1-c1cccc(Cl)c1)CS(=O)(=O)C2)c1ccc2c(c1)OCO2", "hERG current change (%, negative = inhibition) at 1uM": 17.7},
      {"smiles": "N#Cc1nc(-c2ccc(OCc3ccccc3)cc2)oc1NCCN1CCOCC1", "hERG current change (%, negative = inhibition) at 1uM": 18.7},
      {"smiles": "NS(=O)(=O)c1ccc(NC(=O)CSC2=NC(=O)C(c3ccccc3)C(=O)N2)cc1", "note": "(centres unmarked)", "hERG current change (%, negative = inhibition) at 1uM": 3.9}
    ]}
  ]
}
